# Out of some 52,000 compounds screened, about 1,700 (3.3%) were called active. No stated cut-off is given here; in the data, active means survival mostly below about 52% (no sharp cut-off); inactive means mostly above about 56%. This is one part of the list.
# System: Wild type
# Test: S. aureus survival, RN4220 and DeltatarO strains – OD600, teichoic acid synthesis inhibitors, primary screen (AID 463173)
# Settings: S. aureus RN4220 wild type/DeltatarO growth, OD600, 18 h, stronger effect = lower value, screened at 18.75 µg/mL (by protocol)
row,Structure (SMILES),survival
1,CC(=O)Nc1ccc(NC(=O)c2oc3ccc4c(c3c2C)C(=O)CC(C)(C)O4)cc1,inactive: 88%
2,O=C(NCCc1ccccc1)c1ccc2c(c1)N(Cc1ccccc1F)C(=O)c1ccccc1S2=O (stereo not drawn),inactive: 97%
3,O=c1c(N2CCc3ccccc3C2)csc2ccccc12,inactive: 74%
4,CCOc1ccc(-c2nc3c(c(SCC(=O)N4CCCCC4)n2)Cc2ccccc2O3)cc1,inactive: 82%
5,CNC(=O)C1CCC(Cn2c(=O)c3sccc3n(CC(=O)NCc3ccc(F)cc3)c2=O)CC1 (stereo not drawn),inactive: 45%
6,O=C(C1CCCN(S(=O)(=O)c2ccc(Br)s2)C1)N1CCN(c2ccccc2)CC1 (stereo not drawn),inactive: 77%
7,Cc1ccc(-c2ccc(=O)n(CC(=O)Nc3cccc(C#N)c3)n2)cc1,inactive: 128%
8,CC1=C(C(=O)Nc2cccnc2)C(c2ccccc2)n2nc(-c3ccc(O)cc3)nc2N1 (stereo not drawn),inactive: 68%
9,Cc1ccc(C2CCN(C(=O)c3cnn(-c4ccc(C)cc4)c3C3CCN(C(=O)OC(C)(C)C)CC3)C2)cc1 (stereo not drawn),inactive: 119%
10,C=Cc1ccc(Cn2c(C(=O)O)c(CNCc3ccccc3)c3ccc(C)cc32)cc1,inactive: 129%
11,CCc1nnc(NC(=O)C2CCN(S(=O)(=O)Cc3ccccc3)CC2)s1,inactive: 106%
12,Cc1c(C(=O)N2CCCCC2)sc(NC(=O)C(C)C)c1C#N,inactive: 116%
13,CC(=O)N1CCCc2cc(S(=O)(=O)N3CCCC(C(=O)Nc4cc(Cl)ccc4C)C3)ccc21 (stereo not drawn),inactive: 146%
14,COc1ccc(NC(=O)c2ccc3c(=O)n4nc(Nc5cccc(Cl)c5C)sc4nc3c2)cc1,inactive: 74%
15,O=C(N1CCCC1)N1c2ccccc2C=Cc2ccccc21,inactive: 118%
16,Cc1ccc(-c2csc(=Nc3ccc(F)cc3)n2Cc2ccc3c(c2)OCO3)cc1C,inactive: 88%
17,CCOc1ccccc1NS(=O)(=O)c1ccc(-c2cnc(C3CC3)o2)cc1,inactive: 83%
18,Cc1ccc2cc(CN(CC3CCCO3)C(=O)C3CCC3)c3nnnn3c2c1 (stereo not drawn),inactive: 115%
19,COc1cccc(NC(=O)CC(C)S(=O)(=O)c2ccc3c(c2)NC(=O)CO3)c1 (stereo not drawn),inactive: 111%
20,Cc1c(Cl)cccc1NC(=O)c1ncn(-c2ccccc2)n1,inactive: 92%
21,Cc1ccc(NC(=O)CN2C(=O)C3(SCC(=O)N3c3cccc(Cl)c3)c3ccccc32)cc1C (stereo not drawn),inactive: 85%
22,Cc1nn(-c2ccccc2)c2sc(C(=O)Nc3ccccc3Br)cc12,active: 7%

row,Structure (SMILES),survival
1,CC1CCCN(c2ncccc2C(=O)NCC2CCCO2)C1 (stereo not drawn),inactive: 95%
2,COc1ccc(CCNC(=O)CSc2nc(-c3ccc(F)cc3)cc(C(F)(F)F)n2)cc1OC,inactive: 97%
3,Cc1cccc(C(=O)Nc2nnc(S(=O)(=O)N(C)Cc3ccco3)s2)c1,inactive: 29%
4,Nc1c(C(=O)Nc2ccc(C(=O)O)cc2)sc2nc3c(cc12)CCCC3,inactive: 77%
5,Cc1ccc(NS(=O)(=O)c2ccc3c(c2)CCCN3C(=O)C2CCC2)cc1Cl,inactive: 136%
6,O=C(CC1Nc2ccccc2NC1=O)Nc1cccc2ccccc12 (stereo not drawn),inactive: 99%
7,O=C(NCc1ccc2c(c1)CCN2C(=O)c1ccc(Cl)cc1)c1cccc(F)c1,inactive: 55%
8,Cc1ccc(NC(=O)CCS(=O)(=O)c2cc3c4c(c2)CCN4C(=O)CC3)c(C)c1,inactive: 78%
9,O=C(Nc1nnc(S(=O)(=O)Nc2ccccc2)s1)c1ccccc1Cl,inactive: 40%
10,CCc1noc(-c2ccc(N3CCCCC3C)c([N+](=O)[O-])c2)n1 (stereo not drawn),inactive: 123%
11,COCCNc1nc2c(S(=O)(=O)c3ccc(C)c(C)c3)nnn2c2ccc(Cl)cc12,inactive: 89%
12,COc1cc(OC)cc(C(=O)Nc2ccc(S(=O)(=O)Nc3ncccn3)cc2)c1,inactive: 91%
13,Cc1nc2nncn2c(NCc2ccc(F)cc2)c1C,inactive: 84%
14,CN1C(=O)/C(=C2/SC(=S)N(c3cccc(O)c3)C2=O)c2ccccc21,inactive: 102%
15,CCC(Oc1ccccc1)C(=O)Nc1cc(-c2ccccc2OC)nn1-c1ccccc1 (stereo not drawn),inactive: 70%
16,Cc1cc(C(F)(F)F)n2nc(C)cc2n1,inactive: 107%
17,O=C(N/N=C/c1cn(-c2ccccc2)nc1-c1ccccc1)c1ccco1,inactive: 99%
18,Cc1cc(Cl)nc(-c2ccccc2)n1,inactive: 112%
19,Cc1ccc(CS(=O)(=O)c2ncc(Cl)c(C(=O)Nc3nc4ccc(F)cc4s3)n2)cc1,inactive: 20%
20,Cc1ccc(-c2nc3c(c(SCC(=O)Nc4ccccc4Cl)n2)Cc2c(CO)cnc(C)c2O3)cc1,inactive: 87%
21,CCOC(=O)c1c(S(=O)(=O)NCC(=O)NCc2cccc(C)c2)c(C)n(C)c1C,inactive: 71%
22,O=C(Nc1ccc2oc(-c3ccc4ccccc4c3)nc2c1)c1ccccc1F,inactive: 88%

row,Structure (SMILES),survival
1,O=C(OCC1CCCO1)c1ccc2c(c1)N(Cc1ccccc1Cl)C(=O)c1ccccc1S2(=O)=O (stereo not drawn),inactive: 126%
2,CCOc1ccc(-n2c(=O)c3c4c(sc3n(CC(=O)Nc3cccc(C(F)(F)F)c3)c2=O)CCCCC4)cc1,inactive: 83%
3,COc1ccccc1NC(=O)C(Cc1ccccc1)NS(=O)(=O)c1ccc2c(c1)c(=O)n(C)c(=O)n2C (stereo not drawn),inactive: 116%
4,O=C(COc1ccccc1)Nc1nnc(S(=O)(=O)N2CCCC2)s1,inactive: 78%
5,CN(Cc1ccccc1)c1ncnc2onc(-c3ccc(F)cc3)c12,inactive: 81%
6,Cc1cc(Nc2cccc(C(F)(F)F)c2)nc2ccc(NC(=O)c3ccc(=O)[nH]c3)cc12,inactive: 32%
7,O=C(NCc1ccc(F)cc1)c1c(O)nc2ccccn2c1=O,inactive: 55%
8,COc1ccc(NC(=O)c2ccc(C3SCC(=O)N3Cc3ccco3)cc2)cc1 (stereo not drawn),inactive: 110%
9,CCCCOc1cccc(NC(=O)CSc2nnc(C)s2)c1,inactive: 70%
10,COc1ccc(NC(=O)COc2ccc(S(=O)(=O)NC3CCCCC3)cc2)cc1OC,inactive: 74%
11,CCCC(=O)OCc1cnc(C)c2oc(=O)c(C(=O)Nc3ccccc3)cc12,inactive: 85%
12,COc1ccc(NC(=O)C2CCC(CNS(=O)(=O)c3ccc(Br)s3)CC2)cc1OC (stereo not drawn),inactive: 83%
13,COc1ccc(OC)c(NC(=O)CSc2nc3ccccc3nc2N2CCCCC2)c1,active: -10%
14,Cc1ccc2c(=O)cc(CSCC(=O)Nc3nnc(C)s3)[nH]c2c1,inactive: 153%
15,O=C(Nc1cccc(Cl)c1)c1cnc[nH]1,inactive: 147%
16,COc1ccc(Br)cc1C1Sc2ccccc2NC2=C1C(=O)c1ccccc12 (stereo not drawn),inactive: 41%
17,CC(NC(=O)CCNS(=O)(=O)c1cccc2nsnc12)c1ccccc1 (stereo not drawn),inactive: 68%
18,COc1ccc(Cn2nnnc2CN(Cc2ccc(C)cc2)Cc2cc3cc4c(cc3[nH]c2=O)OCO4)cc1,inactive: 101%
19,Cc1cc(C)n(C(C)CC(=O)NCc2ccc(N(C)C)cc2)n1 (stereo not drawn),inactive: 70%
20,COC(=O)c1cc2sccc2n1Cc1nc(-c2ccc(Cl)cc2)oc1C,inactive: 82%
21,CCc1ccccc1NC(=O)c1ccc2c(c1)N(Cc1cc(C)ccc1C)C(=O)c1ccccc1S2(=O)=O,inactive: 93%
22,N#CC(C#N)=Cc1cn(-c2ccccc2)nc1C12CC3CC(CC(C3)C1)C2,inactive: 106%

row,Structure (SMILES),survival
1,CCC(=O)N/N=C/c1ccc(-c2ccc(Cl)cc2)o1,inactive: 106%
2,CCOCCCn1c(SCC(=O)Nc2ccc(C)cc2)nc2ccccc2c1=O,inactive: 83%
3,COc1cccc(C(c2c(O)cc(C)n(Cc3ccco3)c2=O)N2CCN(c3ccccc3)CC2)c1 (stereo not drawn),inactive: 54%
4,O=C(CSc1nccn1Cc1ccc(Cl)cc1)Nc1ccc2c(c1)OCCO2,inactive: 69%
5,COc1cc(Cl)c(C)cc1NC(=O)Cn1ncc2c([nH]c3ccccc32)c1=O,inactive: 55%
6,COc1ccccc1NC(=O)C1=C(C)Nc2nc(SCc3ccccc3C)nn2C1CC(C)C (stereo not drawn),inactive: 91%
7,COc1ccc(CNC(=O)C(C)n2ccc3cc(S(=O)(=O)N4CCCC4)ccc32)cc1OC (stereo not drawn),inactive: 80%
8,Cc1cc(C)c(NC(=O)C2CCN(c3nnc(C)c4c(C)n(-c5ccccc5)nc34)CC2)c(C)c1,inactive: 64%
9,COc1ccc(-n2ncc(C(=O)N3CCc4ccccc4C3)c2C2CCN(C(=O)OC(C)(C)C)CC2)cc1,inactive: 63%
10,Cc1cc(C)cc(NS(=O)(=O)c2ccc3c(c2)CCCN3C(=O)C2CCC2)c1,inactive: 64%
11,CCc1ccc2oc(C(=O)Nc3nonc3CC)c(C)c2c1,inactive: 86%
12,O=C(Nc1ccc(Br)cc1F)c1ncoc1-c1ccco1,inactive: 89%
13,Cc1oc2ncn(C)c(=O)c2c1C(=O)NCCCN1CCCC(C)C1 (stereo not drawn),inactive: 87%
14,CCOc1cc(-c2nc(-c3ccc(Br)cc3)no2)cc(OCC)c1OCC,inactive: 102%
15,O=C(COc1ccccc1)N(Cc1cccnc1)c1nc2ccc(F)cc2s1,inactive: 89%
16,COc1ccc(-c2cc(C(F)(F)F)n3nc(C(=O)NCC45CC6CC(CC(C6)C4)C5)cc3n2)cc1,inactive: 62%
17,COc1ccc(CNC(=O)CN(c2cc(C)cc(C)c2)S(=O)(=O)c2c(C)[nH]c(=O)[nH]c2=O)cc1,inactive: 82%
18,COCCCNC(=O)c1ccc2c(=O)n(Cc3ccc(OC)cc3)c(=O)[nH]c2c1,inactive: 72%
19,O=C(CN1C(=O)COc2ccc(S(=O)(=O)N3CCOCC3)cc21)N1CCN(c2ccccc2)CC1,inactive: 125%
20,Cc1nc(-c2ccc(C)c(S(=O)(=O)N3CCC(C(=O)NCc4ccc(Cl)cc4)CC3)c2)no1,inactive: 134%
21,COc1ccc(CCNC(=O)C2CCCN(c3nc4c(C)cc(C)cc4s3)C2)cc1OC (stereo not drawn),inactive: 79%
22,Cc1ccc(S(=O)(=O)C(CNC(=O)c2ccccc2F)c2cccs2)cc1 (stereo not drawn),inactive: 73%

# Reference: PubChem BioAssay AID463173 (ICCB-Longwood Screening Facility, Harvard Medical School, 2010)
